Patent US11771715B2 (Orna Therapeutics, Inc., priority 2019, dated 2023)

Test system: HEK293 cells
Format: cell-based, human
Settings: luminescence from secreted Gluc in supernatant of HEK293 cells 24 hours after transfection of circular RNA; UTR truncated to 675 nt in front of Gluc coding region

Row | Molecule | Expression
1 | Falco virus A1 (nucleic acid, lipid formulation) TAAAAGGGGACGCGGTGTGGCAGCTTTGGCTGTCATGCCGTGTTCTCCTTTTACCCCAAGGACTAGCCTTGGGGGTTTTCCAAATTCCTTTCCCTGTAGGCTTTACTTCTCTTTATCTATCTTTTCTGTAACTAAGTTTTGCCTATTCTAAAAATATTTTAGAATGTGTTTGGATGTAACTAAGTTTGTGCCTGCCCTAAAAATATTTTAGGGCTTGTTTGGATAACCTCGTCCCTTGTGTTCAGTGCCGCACAATTTGCTAGGCACTGTTCACTTCCTTTGTTTGTCCATTATGTATGCTAAGGTATGAATTCCATCATATGCTTAGCCTCTACATGCATAATCTTATTCCCTCCCTGGTGCAAACTACGCCCCCAACATATGTGAATCTTTTAAGCATATTCCTGACCCCACACATATATATGTGTTCTCGTGAATTCCCCCACCGTGAGGTGGTCACTTGGACGTGGTGTGTGTCACACAGCATATATATGATGCAGGATGTTGTTTTTAAGATAAGCATATGTCCTTAGTGCTTTGCATCATTTCCTCCACACCCCGTGAATGCGGCTAATCTTAACCCTGTTGGGTCCGTGGGTAAACCAACCCATTAACCACAGGACGGAACCGACTACTTTCGGGAGTGTGTGTTTCTTTTTCTTCTTTTGTCACT | 1.48E+05
2 | Yanchengosbecks grenadier anchovy picornavirus (nucleic acid) DNA: CCTTAGGGTCTGGAATGCGTCCTTTCTGGGCACTTCCACAATCCTAAGGTAATTTTCAACGCCAGCGATGGAGCGATATCCAAAGAACCTTTATGTTTTAGTTCGTCTTGTATGTTTATAAAATATAAAATTGGGATTAGCAACCCACAAAAACATTTTTGTTATTCTCACCACATGAGAGGGTGGTTAAACCTCTTCGTAACCTATCTTGCTTGATTGGCTACTTGGGCTAGATTTAGGACAACCTCTTTAGCAAGCCTAAATTACTCCTCGTACTTGCACCTGGTAACAGGCGTACCTGGAGGTTACGGTGGCGCTAACTTGGACTTCTCGTTAATTCGTGCAAGTTTAAATGATGCCTATTTTGAATACAAGAAAGTATGATAGTAACTTAGGGCGTGAAGTTCCGCTTAACATAAGGCAGTATAAGTACTAAGATAAGGTGTAAGACCTACCTTAATAACTGTTGTCTTTTCTCATGGTCTTTCCGTGGGAGCCCTTGCTAGGGGTAAAGTTAAGTATTCTCAAATAATTTTTCATTCAAACTCTTTCTCTCTGTTTT | 1.57E+06
3 | Halastavi arva (1 × mut) (nucleic acid, lipid formulation) CTTGATTCTAACCTTGCCGTATGGTGCCCTAACGGGTTCATTTAATCATGCGATGAGGGTTGCTATACCGCATCCATTCTAAGGCGATTCAATGCTTCATTTAGGAATTTTGTTGACGATTAAAAGGTACCCCCACAAAAACAAAACCAATCTTACTTGATTTTCGTTTTAACTGACCACTGCGATCCCAAATTTTCGCCTTCTTATCAAAGTATGTTGTGTTCTTTGGGTGTACAACCTGAGAACTTGTCTACAACTACATATTACTCGAGGAAGAAATTCGGTTTAAGCCGTGCCTTCTCACGTTTAGTATATCTATCTGGACACACCTTCTTCATCTTCTAATCCCCATCTAGTCTCCTGATCAGAGACGTCGTTATTAACAAATAACCCCCCTTGTTAATAAGAGACAAAGTACAATCAAGCTAAGTTCTCTTGGAGTTCCTGTAGGAACTTAGCCATTGTGATAGAGTCATAAGTCTATGTGCATAGACAGCTCTAGCTCACCATTTCCTTCCCAACCCATCTTTTCATCAGCTTAACTCTATGAATCCGATGCAAAAACCATTCTAACATCTTATGGTGCTTTCCAAGCCAAATGAGAGCTCACTCTTTTGAGCCGCTATTTAATGGACAATAAACGTTTTATAGTGTACATCATATTGTAAAAACAAA | 9.46E+04
